{
  "source": "PubChem BioAssay AID1671193",
  "about": "(National Center for Advancing Translational Sciences (NCATS), 2021)",
  "note": "In all, about 150,000 compounds went through this assay and about 180 (0.12%) were called active. Inconclusive results, whose numbers are uncertain, are shown with a selection of clear calls. The call rests on the fitted dose curve; in most records, active means well fitted cell-killing curve with a large enough effect; inconclusive means small, poorly fitted or top-dose-only effect, or effect the other way; inactive means flat fitted curve, though single readings scatter. Where the call is inconclusive, the potency comes from a doubtful curve fit. Potency means the concentration at half of the fitted maximal effect; tags describe the fitted curve by direction and shape.",
  "data": [
    {"test": "GF-AFC viability counterscreen for inhibitors of alpha-synuclein gene (SNCA) expression; further: nearly all actives have a fitted effect of over 30% in size;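 on activity change, negative = cytotoxicity: 0% = DMSO-treated cells and -100% = medium-only wells without cells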", "settings": "HEK-293-SNCA-luc viability, GF-AFC fluorescence, 24 h; activity change, negative = cytotoxicity: at 57.1 µM (top of the series) unless noted", "outline": "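HEK-293-SNCA-luc cells (1500/well) plated 24 h, then exposed 24 h to a dilution series; GF-AFC added 30 min at 37C, fluorescence 405/540 nm; normalised to medium-only and DMSO wells, Hill fit.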", "values": [
      {"smiles": "Cc1ccc(-c2ccc(CN)cc2)cc1Cl", "Potency": "inconclusive: 56.2 µM [cytotoxic, single point]"},
      {"smiles": "CCC(C(=O)NCCC(C)C)N(C(=O)Cn1nnc(-c2ccc(C)cc2)n1)c1cccc(O)c1", "note": "(configuration not stated)", "Potency": "inconclusive: 28.2 µM [cytotoxic, single point]"},
      {"smiles": "Cc1noc(-c2ccc3c(c2)OCO3)c1C(=O)NCCSCc1ccco1", "activity change, negative = cytotoxicity": "inactive: 11.8%"},
      {"smiles": "CCc1cccc(C)c1NC(=O)CSc1n[nH]c(-c2ccccc2)n1", "Potency": "inconclusive: 25.1 µM [cytotoxic, single point]"},
      {"smiles": "COc1ccc(CC(=O)N[C@H]2CCOC[C@H]2C2CCOCC2)c(OC)c1", "Potency": "inconclusive: 5.62 µM [rising, partial curve]"},
      {"smiles": "CN1CCC2(CC1)CCN(Cc1ccc(OCC(O)CN3CCCCC3)cc1)C2", "note": "(configuration not stated)", "Potency": "inconclusive: 39.8 µM [cytotoxic, single point]"},
      {"smiles": "CC1=C[C@@H](CNC(=O)c2cccnc2)[C@H](C(C)C)C[C@H]1CC(=O)NC1CCCC1", "Potency": "inconclusive: 14.1 µM [cytotoxic, partial curve, poor fit]"},
      {"smiles": "Cc1cc(Nc2nc(N[C@@H](C)c3ccc(F)cc3)c(C#N)cc2F)n[nH]1", "Potency": "inconclusive: 13.6 µM [cytotoxic, partial curve, poor fit]"},
      {"smiles": "COc1ccc(Nc2ncc(-c3cnn(C)c3)c3c2OCC3)cc1", "activity change, negative = cytotoxicity": "inactive: 2.11% [at 87.6 µM]"},
      {"smiles": "CCN(Cc1nccn1C)C(=O)c1ccc(NCc2cccc(C)c2)nc1", "Potency": "inconclusive: 6.31 µM [rising, single point]"},
      {"smiles": "COc1ccc(CC(=O)N[C@@H]2CN(c3ccncn3)C[C@H]2CO)cc1", "activity change, negative = cytotoxicity": "inactive: 6.75%"},
      {"smiles": "COc1cc2c(cc1OC)C(C[C@H]1CN(C(=O)c3ccc(F)cc3)CC[C@H]1CC(=O)O)=NCC2", "activity change, negative = cytotoxicity": "inactive: 13.3%"},
      {"smiles": "COc1cc(NC(=O)CN2C(=O)COc3ccc(S(=O)(=O)NC4CCCC4)cc32)cc(OC)c1", "Potency": "inconclusive: 15.8 µM [cytotoxic, partial curve, poor fit]"},
      {"smiles": "O=C1NCCCCCCN(Cc2ccncc2)[C@@H]2CN(Cc3ccc(O)cc3)CC[C@H]12", "Potency": "inconclusive: 3.98 µM [cytotoxic, single point]"},
      {"smiles": "CN(C)c1ncc2nc(-c3ccccc3)c(=O)n(CCC#N)c2n1", "Potency": "inconclusive: 3.55 µM [rising, full curve, poor fit]"},
      {"smiles": "Cc1cccn2c(=O)c(C(=O)NC(C)c3ccccc3)c(O)nc12", "note": "(configuration not stated)", "Potency": "inconclusive: 22.4 µM [cytotoxic, single point]"},
      {"smiles": "CCC1=C(C(=O)OC)C(c2ccccc2Cl)N2C(CC(=O)NCc3ccco3)=CSC2=N1", "note": "(configuration not stated)", "Potency": "inconclusive: 1.12 µM [cytotoxic, full curve, poor fit]"},
      {"smiles": "Cc1cc(C)c(NC(=O)CSC2=Nc3ccccc3C3=NC(CC(=O)NCc4cccs4)C(=O)N23)c(C)c1", "note": "(configuration not stated)", "Potency": "inconclusive: 31.6 µM [cytotoxic, partial curve, poor fit]"},
      {"smiles": "c1cncc(Nc2cc3c(cn2)CN(Cc2c[nH]c4ccccc24)CCN3)c1", "Potency": "inconclusive: 7.08 µM [cytotoxic, partial curve, poor fit]"},
      {"smiles": "COc1ccc(C(=O)Nc2cc(-c3ccccc3)nn2-c2ccccc2)cc1", "Potency": "inconclusive: 6.31 µM [cytotoxic, partial curve]"},
      {"smiles": "O=C(NCCc1ccc(F)cc1)C1CCN(c2nccc(Nc3ccccc3F)n2)CC1", "Potency": "inconclusive: 39.8 µM [cytotoxic, single point]"},
      {"smiles": "COc1ccc(Nc2ccnc(N3CCCC3C(=O)NCc3ccc(C(F)(F)F)cc3)n2)cc1", "note": "(configuration not stated)", "activity change, negative = cytotoxicity": "inactive: 1.8% [at 12.5 µM]"},
      {"smiles": "O=C(NCc1ccccc1)[C@H](Cc1ccccc1)NC(=O)[C@@H]1O[C@@H]1C(=O)NCCc1ccc(O)cc1", "Potency": "inconclusive: 1.36 µM [cytotoxic, full curve, poor fit]"},
      {"smiles": "Cc1ccccc1OCC(=O)c1ccc2c(c1)N(CC(=O)NCc1ccco1)C(=O)CO2", "Potency": "inconclusive: 14.1 µM [cytotoxic, partial curve, poor fit]"},
      {"smiles": "Cc1ncc(CO)c2c1Oc1nc(-c3ccccc3)nc(SCC(=O)N3CCCCC3)c1C2", "Potency": "inconclusive: 8.91 µM [cytotoxic, full curve, poor fit]"},
      {"smiles": "c1ccc(CCN2CCNc3cc(-c4cn[nH]c4)ncc3C2)cc1", "Potency": "inconclusive: 35.5 µM [cytotoxic, partial curve, poor fit]"},
      {"smiles": "COc1ccccc1C(=O)NCCSc1c(C)[nH]c2ccccc12", "Potency": "inconclusive: 39.8 µM [cytotoxic, partial curve, poor fit]"},
      {"smiles": "COc1cccc(NC(=O)N2CCc3nc4cc(-c5ccccc5Cl)[nH]n4c(=O)c3C2)c1", "activity change, negative = cytotoxicity": "inactive: -1.74%"},
      {"smiles": "CCC(NC(=O)Nc1ccc(OC)c(OC)c1)c1c(-n2cccc2)sc2c1CCN(C)C2", "note": "(configuration not stated)", "Potency": "inconclusive: 31.6 µM [cytotoxic, single point]"},
      {"smiles": "O=C1OCc2cc3cccc(O[C@@H]4O[C@H](CO)[C@@H](O)[C@H](O)[C@H]4O)c3c(O)c21", "Potency": "inconclusive: 14.7 µM [rising, partial curve]"},
      {"smiles": "NC(=O)Cn1ccc2cc(OCC3CCN(C(=O)C4CC4)CC3)cnc21", "activity change, negative = cytotoxicity": "inactive: 3.36% [at 87.6 µM]"},
      {"smiles": "COc1ccccc1CN1CCc2nc(C(=O)Nc3nc(C)cs3)oc2CC1", "activity change, negative = cytotoxicity": "inactive: 1.94% [at 87.6 µM]"},
      {"smiles": "Cc1nn(-c2ccccc2)c(OC(=O)c2ccccc2Cl)c1S(=O)(=O)c1ccccc1", "Potency": "inconclusive: 0.282 µM [cytotoxic, full curve, poor fit]"},
      {"smiles": "COc1ccc(-n2nc(C(=O)N3CCCCC3)c3c4ccccc4n(C)c3c2=O)cc1Cl", "Potency": "inconclusive: 1 µM [cytotoxic, partial curve, poor fit]"},
      {"smiles": "Cc1nc2c(c(-c3ccc(Cl)cc3)n1)CCN(C(=O)c1cccc(Cl)c1)CC2", "Potency": "inconclusive: 10 µM [cytotoxic, partial curve, poor fit]"},
      {"smiles": "Cc1ccc(-c2ccc3nnc(CNC(=O)c4cccc5[nH]ccc45)n3n2)cc1", "Potency": "inconclusive: 14.1 µM [cytotoxic, partial curve, poor fit]"},
      {"smiles": "CCOC(=O)c1c(NC(=O)c2ccc(S(=O)(=O)N(CC(C)C)CC(C)C)cc2)sc2c1CCN(CC)C2", "Potency": "inconclusive: 39.8 µM [rising, single point]"},
      {"smiles": "COc1cccc(-c2nc3cnccn3c2NCCC(=O)N2CCN(C(C)C)CC2)c1", "Potency": "inconclusive: 28.2 µM [rising, partial curve, poor fit]"},
      {"smiles": "CN(C)c1ccc(C(=C2C=CC(=[N+](C)C)C=C2)c2ccc(N(C)C)cc2)cc1", "Potency": "inconclusive: 2.15 µM [cytotoxic, full curve]"},
      {"smiles": "O=C(N[C@H]1CO[C@H]2[C@@H]1OC[C@@H]2Nc1nccc(-c2cccc(F)c2)n1)c1ccccc1", "activity change, negative = cytotoxicity": "inactive: 3.67% [at 87.6 µM]"},
      {"smiles": "C#CCNC(=O)c1nc(-c2ccc(F)cc2)c2ccccn12", "activity change, negative = cytotoxicity": "inactive: -21.7% [at 87.6 µM]"},
      {"smiles": "CCOc1cc(C(Nc2cc(C)ccn2)c2ccc3cccnc3c2O)ccc1OC", "note": "(configuration not stated)", "Potency": "inconclusive: 12.6 µM [cytotoxic, partial curve, poor fit]"},
      {"smiles": "C[C@@H]1CN(Cc2ccccc2)C[C@H]1c1nc2c(cnn2C2CCOCC2)c(=O)[nH]1", "Potency": "inconclusive: 37.7 µM [rising, partial curve, poor fit]"},
      {"smiles": "Cc1cc(Nc2cccc(Br)c2)n2c(nc3ccccc32)c1C#N", "Potency": "inconclusive: 4.47 µM [rising, single point]"},
      {"smiles": "COc1ccccc1NC(=O)c1c(C)cc(C)nc1SCC(=O)Nc1ccc(C)cc1", "Potency": "inconclusive: 12.6 µM [cytotoxic, partial curve, poor fit]"},
      {"smiles": "COC(=O)c1c(NC(C)=O)c2cc(NC3CCN(C(C)=O)CC3)cnc2n1CC1CCCO1", "note": "(configuration not stated)", "Potency": "inconclusive: 39.8 µM [rising, single point]"},
      {"smiles": "CN(C)CCNC(=O)c1ccc(-c2nnc3ccc(NC(=O)C4CCC4)cn23)cc1", "activity change, negative = cytotoxicity": "inactive: 3.16%"},
      {"smiles": "CN1CCN(c2ccc(-c3cn(C)c(=O)n4cc(CNc5ccccc5)nc34)cn2)CC1", "activity change, negative = cytotoxicity": "inactive: -0.584% [at 87.6 µM]"},
      {"smiles": "CCCCCn1c(CCCNC(=O)c2cccc(C)c2)nc2ccccc21", "Potency": "inconclusive: 22.4 µM [cytotoxic, single point]"},
      {"smiles": "CC1=C(C(=O)Nc2ccccc2)C(c2cccc(C)c2)N2C(CC(=O)NC(C)C)=CSC2=N1", "note": "(configuration not stated)", "activity change, negative = cytotoxicity": "inactive: 11.7%"},
      {"smiles": "c1cn(CCc2noc(C3CCCO3)n2)c(-c2nc3c(s2)CCCC3)n1", "note": "(configuration not stated)", "activity change, negative = cytotoxicity": "inactive: -3.48%"},
      {"smiles": "CCN(CC)c1ccc(CNC(=O)c2ccc3c(c2)n(C)c(=O)c2ccnn23)cc1", "activity change, negative = cytotoxicity": "inactive: -1.85%"},
      {"smiles": "COc1ccc(NC(=O)c2ccc3c(c2)N(C(=O)c2ccc(F)cc2)CC3)cc1OC", "Potency": "inconclusive: 25.1 µM [cytotoxic, single point]"},
      {"smiles": "O=C(c1csnn1)N1CCc2onc(-c3cccc(F)c3)c2C1", "activity change, negative = cytotoxicity": "inactive: -0.268%"},
      {"smiles": "Cc1ccc(-c2cc(C(=O)NCCN3CCN(C)CC3)n(C)c2)cc1", "activity change, negative = cytotoxicity": "inactive: 3.25%"},
      {"smiles": "COc1ccc(CCNC(=O)CSC2=Nc3ccccc3C3=NC(CCC(=O)NCc4ccccc4)C(=O)N23)cc1OC", "note": "(configuration not stated)", "Potency": "inconclusive: 11.2 µM [cytotoxic, partial curve, poor fit]"},
      {"smiles": "CCN1C(=O)c2ccccc2S(=O)c2ccc(C(=O)N3CCN(c4ccccc4)CC3)cc21", "note": "(configuration not stated)", "activity change, negative = cytotoxicity": "inactive: 5.07%"},
      {"smiles": "O=C(NCCc1ccc(Cl)cc1)c1nc2cccnc2n(C2CCCCC2)c1=O", "Potency": "inconclusive: 4.47 µM [cytotoxic, single point]"},
      {"smiles": "Cc1ccn2c(c1)nc(=O)c1cc(S(=O)(=O)N3CCCCC3)c(Cl)cc12", "Potency": "inconclusive: 35.5 µM [rising, single point]"},
      {"smiles": "Cc1cccc(-c2nc3scc(CCNS(=O)(=O)c4ccc(F)cc4C)n3n2)c1", "Potency": "inconclusive: 31.6 µM [cytotoxic, single point]"},
      {"smiles": "O=C1Cc2c(-c3ccccc3Cl)n[nH]c2CN1CC1CCOCC1", "activity change, negative = cytotoxicity": "inactive: -4.81% [at 87.6 µM]"},
      {"smiles": "COc1ccc(-c2noc(CC3CCN(C(=O)c4ccc(OC)nc4)CC3)n2)cc1", "activity change, negative = cytotoxicity": "inactive: -19.2%"}
    ]}
  ]
}
